Data published in PubChem BioAssay AID1347071 (National Center for Advancing Translational Sciences (NCATS), 2019).
In all, about 410,000 compounds went through this assay and about 260 (0.063%) were called active. The shares of active, inactive and inconclusive entries below differ from those in the screen. The call rests on the fitted dose curve; in most records, active means well fitted activation curve with a large enough effect; inconclusive means small, poorly fitted or top-dose-only effect; inactive means no such curve, though single readings can be large or run the other way. No potency is given beside an inconclusive call; the fits are too rough.

Assay: qHTS for compounds that reverse cellular toxicity of Amyloid beta (A-beta) peptide in yeast: Primary Screen; further: nearly all actives have a fitted effect of over 55% in size
Conditions: yeast expressing A-beta42, growth rescue, OD600, 48 h; growth rescue: at 46.1 µM (top of the series), 0% DMSO, 100% iron-clioquinol control
How it was run: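 Yeast A-beta toxicity model in growth medium with pinned compounds, 48 h at 30 C; growth read as absorbance at 600 nm. Normalized to FeCl3/clioquinol equimolar mix (positive) and DMSO (negative).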
Potency means the concentration at half of the fitted maximal effect; tags describe the fitted curve by direction and shape.

Q: Which Potency does the source give for COc1ccccc1N1CCN(S(=O)(=O)CCNC(=O)C(c2ccccc2)c2ccccc2)CC1 here?
A: inactive

Q: Which Potency does the source give for Cc1ccc(C)c2[nH]c(=O)c(CN(CCN3CCCC3)C(=O)Nc3cccc(Cl)c3)cc12 here?
A: inconclusive [activator, full curve]

Q: With COc1cccc(C(=O)N(Cc2ccccc2)Cc2cc3cc4c(cc3[nH]c2=O)OCCO4)c1 as the compound, how does the Potency read?
A: inactive

Q: Which growth rescue does the source give for CN(C)CCC1c2ccc(Cl)cc2CCc2cccnc21 (stereo unspecified) (tested in a mixture with another compound) here?
A: inconclusive: -44.2% [activator]

Q: With S=c1[nH]c(-c2ccccc2)cn1/N=C/c1cccs1 as the compound, how does the Potency read?
A: inconclusive [activator, partial curve]

Q: For COc1ccc(C2C(C#N)=C(N)SC(N)=C2C#N)cc1OC, which Potency is on record?
A: inconclusive [activator, full curve, poor fit]

Q: For CN1CCN(C(=O)c2ccc3c(=O)n(-c4ccc(F)cc4)c(=S)[nH]c3c2)CC1, which Potency is on record?
A: inconclusive [activator, partial curve, poor fit]

Q: With OC(c1ccc2ccccc2c1)c1ncc(-c2ccc(C(F)(F)F)cc2)[nH]1 (stereo unspecified) as the compound, how does the Potency read?
A: inconclusive [activator, partial curve]

Q: With COc1ccc(-c2cc(C(=O)Oc3cccc(C)c3C)c3ccccc3n2)cc1 as the compound, how does the Potency read?
A: inactive

Q: Which Potency does the source give for CCOc1ccc(/C=N/n2c(C3CCCCC3)n[nH]c2=S)cc1 here?
A: inconclusive [activator, partial curve, poor fit]

Q: With CCc1ccc(NC(=O)CC2C(=O)N(c3ccc(Cl)cc3)C(=O)N2C2CCCC2)cc1 (stereo unspecified) as the compound, how does the Potency read?
A: inconclusive [activator, partial curve]

Q: With Cc1ccc(NS(=O)(=O)c2cccs2)cc1S(=O)(=O)N1CCCCCC1 as the compound, how does the Potency read?
A: inconclusive [activator, single point]

Q: Which Potency does the source give for O=C(Nc1ccccc1-c1ccccc1)NC1CC2CCCC(C1)N2Cc1ccc(F)cc1 (stereo unspecified) here?
A: inconclusive [activator, single point]

Q: Which Potency does the source give for COc1ccc2c(c1)O[C@H]1c3ccc(O)cc3OC[C@@H]21 here?
A: inconclusive [activator, full curve, poor fit]

Q: With CC(C)c1ccc(/C=C(\C#N)c2nc(-c3ccc(O)cc3)cs2)cc1 as the compound, how does the Potency read?
A: inactive

Q: Which Potency does the source give for Cn1c(NCC(O)CO)nc2c1c(=O)n(Cc1ccc(Cl)c(Cl)c1)c(=O)n2C (stereo unspecified) here?
A: inconclusive [activator, partial curve, poor fit]

Q: Which Potency does the source give for Cc1noc(C)c1COc1ccc(C(=O)OCc2nnc(-c3ccc(Cl)cc3)o2)cc1 here?
A: inconclusive [activator, partial curve, poor fit]

Q: Which Potency does the source give for CCOC(=O)c1c(C)oc2nc(C)nc(Nc3cc(C)ccc3OC)c12 here?
A: inactive

Q: With O=C(NC1CCCCC1)C(c1ccc(F)cc1)N(C(=O)c1cccs1)c1ccc2c(c1)OCO2 (stereo unspecified) as the compound, how does the Potency read?
A: inactive

Q: With CC(C)(C)c1ccc(C(=O)NNC(=S)NCc2ccco2)cc1 as the compound, how does the Potency read?
A: inconclusive [activator, single point]

Q: Which Potency does the source give for Cc1cc(C)cc(NS(=O)(=O)c2ccc(F)cc2)c1 here?
A: inconclusive [activator, partial curve, poor fit]

Q: For O=C(OCc1nnc(-c2ccc([N+](=O)[O-])cc2)o1)C1CCN(C(=O)c2ccc(Cl)cc2)CC1, which Potency is on record?
A: inconclusive [activator, single point]

Q: For Cc1scc(C(=O)NCc2ccco2)c1-c1ccccc1, which Potency is on record?
A: inconclusive [activator, full curve, poor fit]

Q: With Cc1ccc(N(C(=O)c2ccco2)C(C(=O)NC2CCCC2)c2ccco2)c(C)c1 (stereo unspecified) as the compound, how does the Potency read?
A: inconclusive [activator, partial curve, poor fit]

Q: For CC(C)N(Cc1ccccc1)C(=S)NCc1ccccc1, which Potency is on record?
A: inconclusive [activator, single point]

Q: For Cc1ccc(C)c(Cn2cnc3ccccc3c2=O)c1, which Potency is on record?
A: inactive

Q: Which Potency does the source give for CCN1C(=O)[C@H]2[C@@H](c3ccc(C)cc3)N3C(=O)N(c4cccc(Br)c4)C(=O)[C@@]3(C)[C@H]2C1=O here?
A: inconclusive [activator, partial curve, poor fit]

Q: Which Potency does the source give for Cc1cc(C(=O)OCn2nnc3ccccc3c2=O)c(C)o1 here?
A: inconclusive [activator, partial curve, poor fit]

Q: For Cc1ccc(NC(=O)COC(=O)c2cc(=O)c3ccccc3o2)cc1F, which Potency is on record?
A: inactive

Q: With CCc1nc2ccc(C(=O)NCCN3CCOCC3)cn2c1N(CC)CCOC as the compound, how does the Potency read?
A: inconclusive [activator, single point]

Q: For CCc1ccc(Nc2cc(C)nc3ncnn23)cc1, which Potency is on record?
A: inconclusive [activator, partial curve, poor fit]

Q: With CN(c1ccccc1)S(=O)(=O)c1cccc(C(=O)OCC(=O)NCc2ccc3c(c2)OCO3)c1 as the compound, how does the Potency read?
A: inconclusive [activator, partial curve]

Q: For CC1=C(C(=O)Nc2cccc(C(F)(F)F)c2)C2(CCCCCC2)OC1=O, which Potency is on record?
A: inconclusive [activator, partial curve]

Q: For Cc1cc(C)cc(C(O)c2ncc(-c3ccc(C(F)(F)F)cc3)[nH]2)c1 (stereo unspecified), which Potency is on record?
A: inconclusive [activator, single point]

Q: With CCOc1cc(OCC)cc(C(=O)Nc2cccnc2)c1 as the compound, how does the Potency read?
A: inconclusive [activator, partial curve, poor fit]

Q: For CCNC(=S)Nc1ccc2c(c1)oc1ccccc12, which Potency is on record?
A: active: 10 µM

Q: With O=C(O)CN1C(=O)/C(=C\c2cccc(OCc3ccc(F)cc3)c2)SC1=S as the compound, how does the Potency read?
A: active: 5.01 µM

Q: With Cc1ccc(C2CCN(C(=S)NC3CCCCC3)C2)cc1 (stereo unspecified) as the compound, how does the Potency read?
A: inconclusive [activator, partial curve, poor fit]

Q: Which Potency does the source give for Cc1cccc(NC(=O)Nc2cccc(C#N)c2)n1 here?
A: inconclusive [activator, partial curve, poor fit]

Q: Which Potency does the source give for CCOc1ccc(OCCn2c(=S)[nH]c3ccccc32)cc1 here?
A: inconclusive [activator, full curve, poor fit]

Q: With COc1ccc(C(=O)N/N=C\C(C)=C\c2ccccc2)cc1OC as the compound, how does the Potency read?
A: inconclusive [activator, partial curve, poor fit]

Q: Which Potency does the source give for COc1ccc(NC(=O)c2ccc(-c3c(C)noc3C)c3ccoc23)cc1 here?
A: inconclusive [activator, partial curve]

Q: Which Potency does the source give for COc1ccc(NC(=O)c2nnn(CC(=O)Nc3cc(C)cc(C)c3)c2N)c(OC)c1 here?
A: inactive

Q: For CCOc1ccc(S(=O)(=O)NC2CCCCCC2)cc1, which growth rescue is on record?
A: inconclusive: -34.8% [activator]

Q: Which Potency does the source give for COc1cc(/C=N/NC(N)=S)ccc1OCc1ccc(C)cc1 here?
A: inconclusive [activator, full curve, poor fit]

Q: Which Potency does the source give for CCc1ccc(C(=O)Nc2cccc(-c3nc4cc(C(C)C)ccc4o3)c2)cc1 here?
A: inactive

Q: Which Potency does the source give for CCOC(=O)c1sc(-c2ccc(F)cc2)cc1N here?
A: inactive

Q: For Cc1ccc2occ(CC(=O)Nc3c(C(=O)Nc4ccc(Cl)cc4)oc4ccccc34)c2c1, which Potency is on record?
A: inactive

Q: Which Potency does the source give for CC1CCN(C(=S)c2cn(Cc3cccc(F)c3)c3ccccc23)CC1 here?
A: inconclusive [activator, partial curve, poor fit]

Q: With O=C(Nc1nnc([C@@H]2C[C@H](O)[C@@H](CO)O2)s1)Nc1cccc2ccccc12 as the compound, how does the Potency read?
A: inactive

Q: Which Potency does the source give for CNC(=S)N/N=C/c1cc(C)ccc1C here?
A: inconclusive [activator, partial curve]

Q: Which Potency does the source give for CCOC(=O)c1c(SC)n(-c2ccccc2)c(=S)n(-c2ccccc2)c1=O here?
A: inconclusive [activator, full curve, poor fit]

Q: Which Potency does the source give for CC(Oc1cc2oc(=O)c3c(c2cc1Cl)CCC3)C(=O)NCc1ccncc1 (stereo unspecified) here?
A: inactive

Q: Which Potency does the source give for Cc1ccc(C)c(NC(=O)C(=O)NCC(c2cccnc2)N2CCN(c3ccc(F)cc3)CC2)c1 (stereo unspecified) here?
A: inactive

Q: With CC(=O)c1cc(C#N)c(Oc2cccc(C(F)(F)F)c2)nc1C as the compound, how does the Potency read?
A: inconclusive [activator, full curve, poor fit]

Q: With Cc1cccc(-n2c(-c3csc(C)c3)n[nH]c2=S)c1 as the compound, how does the Potency read?
A: inconclusive [activator, partial curve, poor fit]

Q: For Cc1ccc2c(c1)c1c(n2CC(O)CNC2CCCCC2)CCCC1 (stereo unspecified), which Potency is on record?
A: inconclusive [activator, partial curve, poor fit]

Q: For [2H]C(CCOS(N)(=O)=O)c1ccc(C(C)(C)C)cc1 (stereo unspecified), which Potency is on record?
A: inconclusive [activator, single point]

Q: With COc1cc(C)ccc1OCCOCCOc1c(C)cc(C)cc1Br as the compound, how does the Potency read?
A: inconclusive [activator, single point]

Q: With COc1cc(NC(=O)CCc2c(C)noc2C)c(Cl)cc1C(=O)O as the compound, how does the Potency read?
A: inactive

Q: For COc1ccc(OC)c(C2C=C(C34CC5CC(CC(C5)C3)C4)NC(=S)N2)c1 (stereo unspecified), which Potency is on record?
A: inconclusive [activator, full curve, poor fit]

Q: With OCc1cccc(-c2csc(C(O)(c3ccccc3)C(F)(F)F)n2)c1 (stereo unspecified) as the compound, how does the Potency read?
A: inconclusive [activator, single point]

Q: Which Potency does the source give for CC1(/[N+]([O-])=C/c2cccc(Cl)c2)CCCCC1=O (stereo unspecified) here?
A: inconclusive [activator, partial curve]

Q: Which Potency does the source give for Cc1cccc(C2NC(=O)c3c(sc4c3CCN(C)C4)N2)c1O (stereo unspecified) here?
A: inactive

Q: With O=C(Nc1cccc(C(F)(F)F)c1)c1sc(Cl)nc1C(F)(F)F as the compound, how does the Potency read?
A: active: 10 µM

Q: With Cc1nn(C)c(Cl)c1S(=O)(=O)N1CCC(CO)(CCc2ccccc2)CC1 as the compound, how does the Potency read?
A: inconclusive [activator, single point]
